Source: PubChem BioAssay AID686978 (National Center for Advancing Translational Sciences (NCATS), 2013)
The campaign covered roughly 420,000 compounds. About 64,000 (15%) were called active. The shares of active, inactive and inconclusive entries below differ from those in the screen. The call rests on the fitted dose curve; in most records, active means well fitted inhibition curve with a large enough effect; inconclusive means small, poorly fitted or top-dose-only effect; inactive means flat fitted curve, though single readings scatter. Potencies of inconclusive entries are left out as doubtful fits.

Assay: qHTS for Inhibitors of human tyrosyl-DNA phosphodiesterase 1 (TDP1): qHTS in cells in absence of CPT; further: nearly all actives have a fitted effect of over 55% in size
Conditions: DT40 Tdp1-/- hTDP1 cells, no CPT, ATP luminescence, 48 h; activity change, negative = growth inhibition: at 46.2 µM (top of the series) unless noted
Summary of the method: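 Camptothecin absent (DMSO only). Human TDP1-complemented DT40 knockout cells, 400 cells/well, 37 °C for minimum 48 hr; ATP measured via CellTiter-Glo, 30 min dark incubation, luminescence.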
On the % scale 0 is the no-effect control and ±100 the full control effect; potency means the concentration at half of the fitted maximal effect; tags describe the fitted curve by direction and shape.

| SMILES | Potency | activity change, negative = growth inhibition |
| --- | --- | --- |
| O=C(/C=C/c1ccccc1O)c1ccccc1 | active: 14.6 µM |  |
| CCOC(=O)c1c(NC(=S)Nc2ccc(C)cc2)sc2c1CCC2 | inconclusive [inhibitor, single point] |  |
| CCSc1nnc(SCC(=O)Nc2cc(C)on2)s1 |  | inactive: 6.8% |
| COCc1ccc(C(=O)N2CCCC(C(=O)c3ccc(SC)cc3)C2)s1 (stereo unspecified) | inconclusive [inhibitor, single point] |  |
| Cc1ccccc1CNC(=O)CC1C(=O)NCCN1Cc1c(F)cccc1Cl (stereo unspecified) | inconclusive [inhibitor, partial curve, poor fit] |  |
| Cc1ccc2nc(NC(=O)C3CCN(S(=O)(=O)c4cc([N+](=O)[O-])ccc4Cl)CC3)sc2c1 | active: 6.51 µM |  |
| Cc1ccc(N=Cc2c(C)[nH]n(-c3ccccc3)c2=O)nc1 | inconclusive [inhibitor, single point] |  |
| CC(=NCc1ccco1)c1c(C(F)(F)F)[nH]n(-c2nc3ccccc3s2)c1=O | inconclusive [inhibitor, single point] |  |
| COC(=O)N/N=C/c1ccc(-c2ccc(Cl)c(Cl)c2)o1 | inconclusive [inhibitor, single point] |  |
| O=C(NNC(=O)C12CC3CC(CC(C3)C1)C2)[C@@H]1C[C@H]1c1ccccc1 |  | inactive: -10.4% |
| CCN(CC)CCNC(=O)c1ccc2c(=O)n3nc(Nc4ccccc4)sc3nc2c1 | active: 4.61 µM |  |
| COC(=O)c1ccc(-n2cncn2)c([N+](=O)[O-])c1 |  | inactive: -25.6% |
| CN1CCN(c2ccnc(-c3ccc(N(C)C)cc3)n2)CC1 | active: 23.1 µM |  |
| COc1ccc(NC(=O)CSc2nnc3n2CCCCC3)cc1S(=O)(=O)N(C)C |  | inactive: -1.68% |
| CC(CCl)n1c(=O)c2ccccc2n1C(=O)c1ccccc1 (stereo unspecified) | inconclusive [inhibitor, single point] |  |
| COC(=O)c1ccccc1Sc1snnc1C |  | inactive: -9.33% |
| CCOc1ccc(NC(=O)/C(C#N)=C/c2ccc(N3CCCC3)c(C)c2)cc1 | inconclusive [inhibitor, partial curve] |  |
| COc1ccc(C)cc1NC(=O)Cn1c(=O)oc2cc(S(=O)(=O)NCc3ccccc3)ccc21 | active: 14.6 µM |  |
| Cc1cc(OCCCCn2ccnc2)cc(C)c1Cl | active: 20.6 µM |  |
| CCOC(=O)C1=C(C)C/C(=N\NC(=O)c2ccccc2O)CC1 | inconclusive [inhibitor, full curve] |  |
| O=C(C1CCN(S(=O)(=O)Cc2ccccc2)CC1)N1CCN(c2cccc(Cl)c2)CC1 |  | inconclusive: -36.3% [inhibitor] |
